Over roughly 33,000 sequences, “E-score (-0.5 to 0.5)” has its median near -0.01; the highest 2% begin near 0.26. This is one part of the list.
molecular target: Ste12 (UniProt P13574); assay: PBM E-score (8-mer binding enrichment) (E-score (-0.5 to 0.5)); higher = stronger / more preferred TF binding; most listed sequences are background and not binding sites; conditions: protein concentration: 200 nM; construct: GST-DNA-binding domain
Protocol: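 Universal 'all 10-mer' protein binding microarrays (Agilent AMADID 015681) probed with GST-tagged S. cerevisiae TFs (full-length or DBD) made by in vitro transcription/translation (PURExpress), about 100-200 nM. Bound TF was detected with fluorescent anti-GST. Each ungapped 8-mer (which stands for itself and its reverse complement) is scored by the PBM enrichment score (E-score), a modified Wilcoxon-Mann-Whitney statistic from -0.5 to +0.5, computed with the Universal PBM Analysis Suite. Scale: above 0.35 generally sequence-specific binding.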

Sequence | PBM E-score
ATCCGACC | -0.0493
GTTTAAAC | 0.214
ACAGGACG | -0.0545
GTAAGGAC | -0.0274
GTAACGGA | 0.143
AAGAGCTT | -0.0673
AGGTCTGC | -0.057
ATAGAAAC | 0.189
AACGTATC | -0.0234
CCGGTACC | -0.188
AACTGGAG | -0.0915
CTTACTCA | 0.0446
AGCTCAAT | -0.103
AGTAGAGC | -0.222
GTGCGGTA | 0.0253
CCAGCAGG | -0.107
ACAGGAGC | -0.14
AACCTCTA | 0.0864
CTGTTTTC | 0.0946
AGGTTGAG | -0.113
TGTCCGAA | 0.0419
ATAATGAC | -0.141

Sequence | PBM E-score
CTGCGCCA | 0.0695
AACTTCGC | -0.0676
TATGACCA | 0.00859
CGTGTAAG | -0.0021
CCCAGGAC | -0.0934
GATTCCAA | 0.105
GCGTGCCA | -0.167
ATACTATC | -0.00574
CCTCCGTC | -0.144
GAAGTGTA | -0.0683
AGTAGACG | -0.0195
ACGCTATC | 0.0237
AATACTAC | 0.155
ACATGTAC | 0.0233
CGCATTTC | 0.191
CTCTGACC | -0.142
CTTCTGTC | -0.0575
ACGGTCAT | 0.0396
CGGGAAAG | -0.0256
CATCGCTA | 0.0271
TGTAAACA | 0.087
CCGGAAAG | 0.0177

Sequence | PBM E-score
ATAACGCA | 0.0717
GTAGGTAA | -0.0385
TAACCACA | 0.128
AAACTAAA | 0.198
ACAGCTAC | -0.251
CTAATGTA | 0.0302
GAAGAAAC | 0.122
GGCTAACC | -0.248
GCTCGTCA | -0.0995
ATAGACCC | -0.0698
CAGTCGAC | 0.0155
AGTCTGTA | -0.0964
GAGCCCGC | -0.0842
ATCGCATC | 0.0632
GGCTCCAA | -0.128
AGAGTGGC | -0.116
GATGAAGA | 0.106
GGACGTAA | 0.0473
GGGAACTA | 0.129
CACGGAGC | -0.0246
CCAAATCA | 0.0372
ACGGATGC | -0.1

Sequence | PBM E-score
TGGATCAA | 0.0257
GCATACCA | -0.196
ACCCCCGA | 0.0557
ACCCATGA | -0.107
CCAATAAC | 0.0212
GCGACGTA | 0.146
ACCGCGAA | -0.0549
CATACCCC | 0.205
GTTATCAA | 0.05
CTTACTGC | 0.0555
ACCGGCTG | -0.121
CAAGCTTC | -0.106
ACGGAACA | 0.099
CGACACGC | 0.0301
AATAGCTC | -0.0636
ATCGATCG | -0.0157
ATGATGGA | 0.00896
ATCAGCGA | 0.146
CTTATGGA | -0.0137
AACGTGAA | 0.132

— the supplement of paper PMC3334620
